Data from PubChem BioAssay AID1347120 (National Center for Advancing Translational Sciences (NCATS), 2019).
About 930 (0.24%) of roughly 390,000 compounds were called active. The inconclusive results got no clear call from the source; some entries with a clear call stand among them for comparison. Calls come from the whole dose curve; as a rule, active = well fitted activation curve with a large enough effect; inconclusive = small, poorly fitted or top-dose-only effect; inactive = no such curve, though single readings can be large or run the other way. Potencies of inconclusive entries are doubtful fits and often do not repeat.

Test: qHTS for Suppressors of FUS Proteinopathy: Primary screen using FUS-linked yeast assay; note: nearly all actives have a fitted effect of over 55% in size;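 for growth rescue (activation): plate controls were DMSO vehicle for no effect and reference control for full effect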
Conditions: S. cerevisiae FUS-expressing, OD600, 24 h; Potency: growth rescue; growth rescue (activation): at 76.6 µM (top of the series)
In short: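 Absorbance at 600 nm, taken 24hr after compound addition, measured rescue of FUS-yeast growth at 30C. Induction used 2% galactose with seeding at OD 0.005. Controls: CP55940 from 92uM final, DMSO only.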
Potency is the fitted concentration of half-maximal effect; tags give direction and shape of the fitted curve.

SMILES | Potency | growth rescue (activation)
COC(=O)[C@]12CCCCC=C1N(Cc1ccc3c(c1)OCO3)C(=O)[C@H](CC(=O)NCCCCc1ccccc1)C2 | inconclusive: 11.2 µM [activator, partial curve, poor fit] | 
CCOC(=O)C1CCCCN1C(=O)c1ccc2nc(Cc3ccc(OC)cc3)oc2c1 (stereo not given) | inconclusive: 44.7 µM [activator, single point] | 
Cc1cccc(C)c1-n1nnnc1C(c1ccnc2ccccc12)N1CCN(C(=O)OCc2ccccc2)CC1 (stereo not given) | inactive | 
COc1ccc(-n2nc(C(=O)NCC(=O)NCC3COc4ccccc4O3)c3ccccc3c2=O)cc1 (stereo not given) | inconclusive: 15.8 µM [activator, partial curve] | 
OCc1cn(-c2ccccc2)nc1-c1cc2ccccc2o1 | inactive | 
CC(C)c1ccc(NC(=O)CSc2nc(=O)[nH]c3c2CCCC3)cc1 | inconclusive: 35.5 µM [activator, single point] | 
Clc1cccc(Cl)c1Cn1nnc(N2CCCC2)n1 | inactive | 
Cc1occc1-c1nnc(SCc2nc3ccccc3c(=O)n2CC#N)n1C | inconclusive: 31.6 µM [activator, single point] | 
CCCCOc1ccc(NC(=O)CSc2ccc(C(=O)O)cn2)cc1 | inactive | 
Cc1cc(N2CCN(c3ccccc3F)CC2)n2cnnc2n1 | inactive | 
Cc1nc(SC(C)C(=O)NCC2CCCO2)c2cc(-c3ccccc3)sc2n1 (stereo not given) | inconclusive: 44.7 µM [activator, single point] | 
O=S(=O)(NCC(c1ccco1)S(=O)(=O)c1ccccc1)c1cc(F)ccc1F (stereo not given) | inactive | 
CC(C)(C)c1cc(C(=S)N2CCCC2)cc(C(C)(C)C)c1O | inactive | 
C=CC[C@H](CC(=O)N(CCO)Cc1ccccc1)C(=O)N[C@H](COC(=O)[C@@H](CC=C)CC(=O)OC(C)(C)C)Cc1ccccc1 | active: 7.94 µM | 
CCOc1cc(C2C(C(C)=O)=C(O)C(=O)N2CCc2c[nH]c3ccccc23)ccc1O (stereo not given) | inconclusive: 44.7 µM [activator, single point] | 
COc1cc(C2CC(=O)N(c3ccc(C)c(Cl)c3)C3=C2C(=O)OC3)cc(OC)c1OC (stereo not given) | inactive | 
Cc1ccc(S(=O)(=O)N(CCc2ccccc2)CC(=O)N2CCOCC2)cc1 | inactive | 
Cc1nc2nc(CNC(=O)c3cccc(F)c3)nn2c(C)c1CCC(=O)Nc1ccc(F)cc1 | inactive | 
CCCCCn1nnnc1C1(C)CN(S(C)(=O)=O)CC(=O)N1Cc1ccco1 (stereo not given) | inactive | 
O=c1n(Cc2ccccc2)nc2n1-c1ccccc1OC2 | inactive | 
CC(C)c1cnc2c(c1SCc1ccc([N+](=O)[O-])cc1)c(=O)n(C)c(=O)n2C | inactive | 
C[C@H](CO)N1C[C@H](C)[C@@H](CN(C)S(=O)(=O)c2ccc(F)cc2)Oc2ccc(NC(=O)Nc3ccc4c(c3)OCO4)cc2C1=O | inconclusive: 17.8 µM [activator, partial curve, poor fit] | 

SMILES | Potency | growth rescue (activation)
Cc1cc(C(=O)CSc2nnc(-c3ccncc3)n2-c2ccccc2)c(C)n1C | active: 31.6 µM | 
CCc1ccccc1N1CC(c2nc3ccccc3n2CCCCOc2ccccc2OC)CC1=O (stereo not given) | inactive | 
CCN(c1ccccc1)S(=O)(=O)c1ccc(NC(=O)c2cc(=O)c3c(C)cc(C)cc3o2)cc1 | inactive | 
COC(=O)c1c(-c2ccc(SC)cc2)sc2ccc(OC)cc12 | inactive | 
COc1ccccc1-c1cc2ccccc2[nH]1 | inactive | 
Cc1ccc(S(=O)(=O)Nc2cccc(-c3ccc(N4CCCCCC4)nn3)c2)c(C)c1 | inconclusive: 25.1 µM [activator, single point] | 
COc1ccccc1CNC(=O)c1cc(S(=O)(=O)N2CCCCCC2)cn1C | inconclusive: 50.1 µM [activator, single point] | 
COC(=O)[C@]12C[C@H](CC(=O)NCC34CC5CC(CC(C5)C3)C4)C(=O)N(Cc3ccco3)C1=C[C@H](C1CCCC1)O[C@@H]2C | inconclusive: 12.6 µM [activator, partial curve, poor fit] | 
O=C1CC(c2nnc(Cc3ccc(F)cc3)o2)CN1c1ccccc1 (stereo not given) | inactive | 
CCOC(=O)[C@@]12CN(C(=O)OC(C)(C)C)CC=C1N(Cc1ccc(OC)cc1)C(=O)[C@H]2CC(=O)N1CCCCC1 | inconclusive: 6.31 µM [activator, partial curve, poor fit] | 
Cn1cnnc1SCC(=O)Nc1ccc2nc(SCc3cccc4ccccc34)sc2c1 | inconclusive: 25.1 µM [activator, partial curve, poor fit] | 
Cc1nc2c(OCc3ccccc3)cccn2c1N(C)C(=O)C1CCCCC1 | inactive | 
Cc1c(C2=CCN(S(=O)(=O)c3ccc(Cl)cc3)CC2)c2ccccc2n1CC(=O)N1CCCC1 | inactive | 
C[C@H]1O[C@H](O[C@H]2[C@H](O[C@@H]3CC[C@@]4(C)C(CC[C@]5(C)C4CC=C4[C@@H]6CC(C)(C)CC[C@]6(C(=O)O[C@@H]6O[C@H](CO)[C@@H](O)[C@H](O)[C@H]6O)CC[C@]45C)C3(C)C)O[C@H](C(=O)O)[C@@H](O)[C@@H]2O)[C@@H](O)[C@@H](O)[C@@H]1O (stereo not given in full) | inconclusive: 39.8 µM [activator, single point] | 
O=S(=O)(NCC(c1cccs1)S(=O)(=O)c1ccccc1)c1ccc(F)cc1 (stereo not given) | inactive | 
CC(C)(C)CCN1C[C@@H]2C(CNC(=O)c3cc(Cl)cc(Cl)c3)[C@@H]2C1 (stereo not given in full) | inactive | 
CC1(C(=O)O)CCC(C(=O)Nc2ccc3ccccc3c2)C1(C)C (stereo not given) | inconclusive: 22.4 µM [activator, partial curve, poor fit] | 
COC(=O)c1[nH]c(C)c(/C(O)=C2\C(=O)C(=O)N(CCN(C)C)C2c2ccccc2OC)c1C (stereo not given) |  | inconclusive: 32.8% [activator]
O=C(COc1ccccc1)NCCc1csc(-c2ccc(Cl)cc2)n1 | inconclusive: 39.8 µM [activator, partial curve, poor fit] | 
CC(=O)Nc1nc(C)c(Oc2ccccc2)c(=O)[nH]1 | inconclusive: 6.31 µM [activator, single point] | 
O=C(c1ccc2c(c1)OCCO2)N(Cc1cccnc1)c1nc2c(Cl)cccc2s1 | inactive | 
Cc1ccccc1N/N=C/c1c(C)nc2ccccn12 | inactive | 

SMILES | Potency | growth rescue (activation)
CCOC(=O)[C@]12CCCC=C1N(Cc1ccc3c(c1)OCO3)C(=O)[C@H](CC(=O)NCc1cccc3ccccc13)C2 | inconclusive: 5.62 µM [activator, full curve, poor fit] | 
COc1ccc(S(=O)(=O)NCCC(=O)NCc2cccs2)cc1 |  | inconclusive: 14.1% [activator]
CCN(CC)CCCN=Cc1c(-c2ccccc2)[nH]n(-c2nc3ccccc3s2)c1=O | inconclusive: 44.7 µM [activator, single point] | 
CC(C)OCCCN1CC(=O)N2C(c3cccc([N+](=O)[O-])c3)c3[nH]c4ccccc4c3C[C@H]2C1=O (stereo not given in full) | inconclusive: 31.6 µM [activator, single point] | 
COc1cccc(NC(=O)n2ccc3ccc(-c4ccc5cc[nH]c5c4)cc32)c1 | inconclusive: 22.4 µM [activator, single point] | 
COc1cccc(N2CCN(C(=O)c3cccc(-n4c(C)nc5cccnc54)c3)CC2)c1 | inconclusive: 35.5 µM [activator, partial curve, poor fit] | 
COC(=O)[C@@]12CCCCC3=C1N(CCC3)C(=O)[C@H]2CC(=O)NCC12CC3CC(CC(C3)C1)C2 | inactive | 
CCOc1ccc(NC(=O)c2c(NCc3cccnc3)sc3c2CCCC3)cc1 | inactive | 
Cc1ccc(C2C=CC(C#N)=CN2Cc2ccccc2)cc1 (stereo not given) | inactive | 
COc1ccc(CCNC(=O)c2ccc(Nc3nc4ccccc4n4nnnc34)cc2)cc1OC | inconclusive: 31.6 µM [activator, single point] | 
C#CCNC(=O)C[C@H]1C[C@@]2(C(=O)OC)C(=C[C@H](C(C)C)O[C@@H]2C2CC2)N(CCCCCCCC)C1=O | inconclusive: 12.6 µM [activator, partial curve] | 
Cc1cccc(N(CC(O)Cn2c3ccccc3c3ccccc32)S(=O)(=O)c2ccc(F)cc2)c1 (stereo not given) | inconclusive: 35.5 µM [activator, partial curve] | 
O=C(NCCc1ccccc1)c1ccc2c(c1)N(Cc1ccc(F)cc1)C(=O)c1ccccc1S2(=O)=O | inconclusive: 22.4 µM [activator, single point] | 
Oc1ccccc1-c1cnc2cccnn12 | inactive | 
O=P(c1ccccc1)(c1ccccc1)c1cnc2ccccn12 | inactive | 
Oc1c(N=NC(=S)Nc2ccccc2F)c2ccccc2n1Cc1cccc(Cl)c1 | inactive | 
COc1ccc(C(C)(NC(C)=O)c2nc(-c3cccc(C(=O)O)c3)cs2)cc1 (stereo not given) | inconclusive: 28.2 µM [activator, single point] | 
COc1cccc(-c2nc(-c3ccc4c(c3)-c3ccccc3S4(=O)=O)c(-c3ccccc3)[nH]2)c1OC | inconclusive: 28.2 µM [activator, partial curve, poor fit] | 
Cc1ccc2c(c1)C(=C(C#N)C#N)C(=O)N2CCN1CCCCC1 | inconclusive: 28.2 µM [activator, partial curve, poor fit] | 
CN(C(=O)c1cccc(NC(=O)Cc2ccc(NC(=O)C3CCN(C(=O)C4CCCC4)CC3)cc2)c1)C1CCCCC1 | inconclusive: 50.1 µM [activator, single point] | 
COC(=O)[C@]12C[C@H](CC(=O)N3CCCC3)C(=O)N(Cc3cccc4ccccc34)C1=C[C@H](C(C)(C)C)O[C@@H]2C | inconclusive: 31.6 µM [activator, single point] | 
